# About 7,500 (2.1%) of roughly 360,000 compounds were called active. Inconclusive means that the source gave no clear call. Such entries were picked first, then a sample of the others. The call rests on the fitted dose curve; in most records, active means well fitted cell-killing curve with a large enough effect; inconclusive means small, poorly fitted or top-dose-only effect, or effect the other way, or another doubt; inactive means no such curve, though single readings can be large or run the other way. Potencies of inconclusive entries are left out as doubtful fits.
# Test: qHTS for induction of synthetic lethality in tumor cells producing 2HG: qHTS for the HT-1080-IDH1KD cell line;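 on activity, negative = toxicity: 0% = DMSO wells and -100% = cell-free medium wells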
# Conditions: HT-1080 IDH1 knockdown viability, ATP luminescence, 48 h; activity, negative = toxicity: at 46.1 µM (top of the series) unless noted
# Outline: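 Cytotoxicity counter-line: IDH1KD HT-1080, 48 h, CellTiter-Glo. Curves classed by r2, magnitude and activity.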
# Potency means the concentration at half of the fitted maximal effect; tags describe the fitted curve by direction and shape.
SMILES,Potency,"activity, negative = toxicity"
NS(=O)(=O)c1ccc(CCNC(=O)CN2CCC(Cc3ccccc3)CC2)cc1,"inconclusive [cytotoxic, partial curve]",
COCCOC(=O)CSc1ncccc1-c1nc2cc(C)c(C)cc2[nH]1,"inconclusive [cytotoxic, single point]",
Cc1ccc(C2C(C#N)=C(N)Oc3cc(C)oc(=O)c32)o1 (stereo not drawn),"inconclusive [cytotoxic, single point]",
COc1cccc(-c2noc(N)c2C#N)c1,"inconclusive [cytotoxic, single point]",
Cc1cc(C)c(O)c(-c2cc(C(=O)Nc3ccc(S(=O)(=O)N4CCOCC4)cc3)[nH]n2)c1,"inconclusive [cytotoxic, single point]",
Cc1nn2c(-c3ccncc3)nnc2c2ccccc12,,inactive: 11.9%
COCCOCCn1c(/C=C/c2ccccc2)nc2ccccc21,"inconclusive [cytotoxic, single point]",
O=C1Nc2ccccc2/C1=C/C(=O)c1cccs1,"inconclusive [cytotoxic, single point]",
Cc1cc(C)c2nc(NNC(=O)c3ccc(S(=O)(=O)N4CCCCC4)cc3)sc2c1,"inconclusive [cytotoxic, partial curve]",
CC1=NN(c2nc3ccccc3[nH]2)C(=O)/C1=C/N(C)C,active: 2.91 µM,
C#CCOCCOCCOCCNc1nc(N2CCN(C(=O)CCCCCCCCCCNC(=O)[C@H](CCCCN)n3cc(C[C@@H](C)CC)nn3)CC2)nc(N2CCN(C(=O)CCCCCCCCCCNC(=O)[C@H](CCCN=C(N)N)n3cc(C[C@@H](C)CC)nn3)CC2)n1,"inconclusive [cytotoxic, single point]",
CCn1c(=O)n(CC)c2cc(N3CCCC3)c(NC(=O)c3ccccc3OC)cc21,"inconclusive [cytotoxic, single point]",
Cc1cccc(-c2nnc3sc(-c4ccccc4C)nn23)c1,"inconclusive [cytotoxic, single point]",
O=C(NCC1CCCO1)c1cc2ccccc2oc1=O (stereo not drawn),"inconclusive [rising, single point]",
CCCS(=O)(=O)c1c(S(=O)(=O)CCC)c2c(C)cccn2c1C(=O)N/N=C/c1cc(O)cc(O)c1,active: 7.31 µM,
COc1ccc(/C=C/C(=O)NCc2cn(C)nc2C)cc1COc1ccc(Br)cc1,"inconclusive [cytotoxic, single point]",
COc1ccc(CNC(=O)CCN2C(=S)NC(C)(C)CC2C)cc1 (stereo not drawn),,inactive: 0.469%
COc1cc(C#Cc2ccc3cc(CCCO)oc(=O)c3c2)cc(OC)c1,active: 2.06 µM,
CCc1ccc2nc(N(CCCN(C)C)C(=O)c3ccc(S(=O)(=O)N(C)C4CCCCC4)cc3)sc2c1,active: 23.1 µM,
Cc1ccc(C(=O)NN=Cc2ccc3c(c2)OCO3)cc1,"inconclusive [cytotoxic, partial curve]",
Cc1nnc2ccc(-c3ccc(NS(=O)(=O)c4ccc(Cl)s4)cc3)nn12,,inactive: 5.62%
COc1ccccc1NC(=O)C(C)OC(=O)C1COc2ccccc2O1 (stereo not drawn),,inactive: -2.7%
O=C(Cn1ncc2c([nH]c3ccccc32)c1=O)N1CCN(c2ccc(F)cc2)CC1,,inconclusive: 31%

SMILES,Potency,"activity, negative = toxicity"
CC1(C)CC(=O)C2=C(C1)OC(N)=C(C#N)C2c1cccs1 (stereo not drawn),,inactive: 4.84%
O=c1cc(-c2ccccc2)nc2cc(-c3ccc(F)cc3)[nH]n12,"inconclusive [cytotoxic, full curve]",
O=C1NC[C@H](CCCCN2C[C@H](Cc3ccc(O)cc3)N(CCc3ccc(O)cc3)C(=O)C2=O)N(CCc2ccc(O)cc2)C1=O,,inactive: 14.1%
COC(=O)C[C@@H]1CC[C@@H](NC(=O)C2CCC2)[C@@H](CO)O1,,inactive: 5.68%
C/C(=N\NC(=S)Nc1cc(S(=O)(=O)N2CCOCC2)ccc1Cl)c1ccccc1F,"inconclusive [cytotoxic, single point]",
Cc1ccc(NC2=CC(=O)CC(C)(C)C2)cc1C,,inactive: 2%
Cn1c2ccc(F)cc2c2nnc(SCC(=O)Nc3cccc(O)c3)nc21,"inconclusive [cytotoxic, partial curve]",
CCOc1ccccc1N1C(=O)CC(Sc2n[nH]c(-c3ccccc3)n2)C1=O (stereo not drawn),"inconclusive [cytotoxic, single point]",
COc1ccc(CN(CCC(c2ccccc2)c2ccc(OC(C)C)cc2)C(=O)CCl)cc1OC (stereo not drawn),active: 1.64 µM,
Cc1nc(NC(=O)c2cccc(Cl)c2)sc1C(=O)N1CCCCC1,,inactive: 0.39%
CC(=O)c1cccc(NC(=O)CSc2ccc(-c3ccccn3)nn2)c1,"inconclusive [cytotoxic, single point]",
Fc1ccccc1-c1cc2ccccc2cn1,,inactive: 4.58%
O=C(O)CCCCCN1C(=O)/C(=C/c2cn(-c3ccccc3)nc2-c2cccs2)SC1=S,"inconclusive [cytotoxic, single point]",
O=C(NCc1ccccn1)NC12CC3CC(CC(C3)C1)C2,,inconclusive: 21.4%
S=c1[nH]nc(-c2ccc(Cl)cc2)n1/N=C/c1cccs1,"inconclusive [cytotoxic, single point]",
O=C1NC2c3c(Cl)sc(Cl)c3C(=O)C2O1 (stereo not drawn),"inconclusive [cytotoxic, single point]",
CCN(Cc1ccccc1)C(=O)CC(=O)N(CC)Cc1ccccc1,,inactive: 16.6%
Cc1ccc(S(=O)(=O)Nc2nc3ccccc3nc2N2CCc3ccccc3C2)cc1,"inconclusive [cytotoxic, single point]",
Cc1cccc(N2CCN(c3nc(C)cc(C)c3C#N)CC2C)c1 (stereo not drawn),,inactive: 2.85%
O=C(Cn1nnc(-c2ccc(F)cc2)n1)NC(=O)NC1CCCCC1,,inactive: -21.4%
CC1CCN(C(=O)/C(=C/c2ccccc2Cl)c2ccccc2)CC1,"inconclusive [cytotoxic, single point]",
COc1ccc(S(=O)(=O)N2CCCCCC2)cc1C(=O)N(C)Cc1ccc(C(C)(C)C)cc1,"inconclusive [cytotoxic, single point]",
COc1cccc(/C=N/Nc2nc3ccccc3n3cnnc23)c1O,"inconclusive [cytotoxic, single point]",

SMILES,Potency,"activity, negative = toxicity"
Cc1cccc(NC(=O)c2nc[nH]c2C(=O)N[C@@H](C)c2ccccc2)c1,active: 14.6 µM,
Cc1ccc(N=Cc2cc3c(cc2O)OC(N)=C(C#N)C3c2ccccc2)cc1 (stereo not drawn),"inconclusive [cytotoxic, partial curve]",
Cc1ccc(Cn2ncc(C)c2N)o1,,inactive: -41.9%
COc1ccc(Cc2c(-c3ccc(OC)c(OC)c3)nc3ccc(C)cn23)c(C)c1,"inconclusive [cytotoxic, single point]",
CC(=O)Nc1cccc(NC(=O)Cc2ccc3ccccc3c2)c1,,inconclusive: -33.1% [cytotoxic]
C=CCc1cccc(/C=N/NC(=O)C(C)Nc2ccc(C)cc2)c1O (stereo not drawn),"inconclusive [cytotoxic, partial curve]",
COc1ccc(Cn2nnnc2CN2CCC(c3nc4ccccc4s3)CC2)cc1,"inconclusive [cytotoxic, single point]",
CCCC(=O)NC(c1cccs1)c1cc([N+](=O)[O-])c2cccnc2c1O (stereo not drawn),"inconclusive [cytotoxic, partial curve]",
COc1ccc(-c2nc3ccccc3o2)cc1NC(=O)CSc1ccc(Cl)cc1,,inconclusive: 30.6%
O=C(Nc1cccc(Cl)c1)c1nc[nH]c1C(=O)NCc1ccccc1,"inconclusive [cytotoxic, single point]",
COc1ccc(NC(=O)C(C)N2c3cccc4cccc(c34)S2(=O)=O)cc1OC (stereo not drawn),"inconclusive [cytotoxic, single point]",
COCc1ccc(CN2CCCC(C(=O)Nc3ccc(-c4cccc(OC)c4)cc3)C2)o1 (stereo not drawn),"inconclusive [cytotoxic, single point]",
C/C(=N\NC(=O)CCc1ccccc1)C1C(=O)c2ccccc2C1=O,"inconclusive [cytotoxic, partial curve]",
COC(=O)c1ccc2c(=O)n(Cc3ccc(C(=O)NCCCN4CCOCC4)cc3)c(=S)[nH]c2c1,"inconclusive [cytotoxic, single point]",
CCCOc1ccc(C(=O)c2ccccc2C(=O)OC2CCOC2=O)cc1OCCC (stereo not drawn),"inconclusive [cytotoxic, single point]",
COc1ccc(C(=O)Nc2nc3ccccc3[nH]2)cc1,"inconclusive [cytotoxic, single point]",
O=C1NC(c2ccc3ccccc3c2)Nc2ccccc21 (stereo not drawn),"inconclusive [cytotoxic, single point]",
Cc1n[nH]c(C)c1N1C(=O)c2cccc3c(Br)ccc(c23)C1=O,"inconclusive [cytotoxic, single point]",
Cc1ccc(NS(=O)(=O)c2cc([N+](=O)[O-])ccc2NNC(=S)Nc2cccc(Cl)c2)c(C)c1,"inconclusive [cytotoxic, single point]",
COc1ccc(C(=O)C2CCCN(C/C=C/c3ccccc3OC)C2)c(OC)c1 (stereo not drawn),"inconclusive [cytotoxic, single point]",
Cc1n[nH]c(C)c1Cc1c(F)cccc1Cl,,inactive: -0.932%
COc1ccc([C@H]2CC(=O)C=C(c3ccc(CNC(=O)OC(C)(C)C)cc3)C2)cc1,"inconclusive [cytotoxic, partial curve]",
